# According to the supplement of paper PMC10441789:
# The other results are listed elsewhere or left out. Antibody binding of pooled human sera (four to six donors per pool; dilution not stated) to peptides of the Trypanosoma cruzi antigen TSSA on microarrays. Quantile-normalised fluorescence in arbitrary units, mean of duplicate arrays; higher = more binding. No active / inactive call. The uninfected pools are read here as the healthy donors of the same country. The strongest signals lie near the top of the scale (about 60,000).
# Legend:
# Assay in all cases: antibody binding signal (normalised fluorescence) (arbitrary fluorescence units); higher = stronger serum antibody binding to peptide
# [1] = tested on: pooled sera of chronic Chagas disease patients, Argentina
# Procedure: (§1)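 Microarray of 15-residue peptides over residues 30-55 of Trypanosoma cruzi TSSAII, each with 1 to 10 substitutions at naturally variable positions, probed with one serum pool per country.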
# [2] = tested on: pooled sera of chronic Chagas disease patients, Bolivia
# Procedure: as §1
# [3] = tested on: pooled sera of chronic Chagas disease patients, Brazil
# Procedure: as §1
# [4] = tested on: pooled sera of chronic Chagas disease patients, Colombia
# Procedure: as §1
# [5] = tested on: pooled sera of chronic Chagas disease patients, Mexico
# Procedure: as §1
# [6] = tested on: pooled sera of chronic Chagas disease patients, USA
# Procedure: as §1
# [7] = tested on: pooled sera of uninfected people, Argentina
# Procedure: as §1
# [8] = tested on: pooled sera of uninfected people, Bolivia
# Procedure: as §1
# [9] = tested on: pooled sera of uninfected people, Brazil
# Procedure: as §1
# [10] = tested on: pooled sera of uninfected people, Mexico
# Procedure: as §1
# [11] = tested on: pooled sera of uninfected people, USA
# Procedure: as §1
Sequence,antibody binding signal [1],antibody binding signal [2],antibody binding signal [3],antibody binding signal [4],antibody binding signal [5],antibody binding signal [6],antibody binding signal [7],antibody binding signal [8],antibody binding signal [9],antibody binding signal [10],antibody binding signal [11]
KDNKTATGEAPSQSG,16400,27500,22600,2030,281,21300,604,235,188,175,170
GTDNKTATGETPSQS,691,1380,32100,238,192,7530,100,597,1310,120,138
GTEKKPAAGGAPSQS,1410,221,481,4010,1970,1180,187,796,831,334,1380
TEKKAAAGGAPSPPG,784,218,257,7620,948,2140,223,163,607,222,269
TDKKTAAGEAPSQSG,591,12000,4820,441,338,6150,175,355,284,199,135
PPSGTDKKTAAGGTP,6790,1800,16000,13400,29200,2430,223,197,1110,636,196
SGTDKKAAAGGTPSQ,431,547,1570,13000,981,1850,213,172,1870,1140,196
PPSGKENKPATGEAP,45700,44800,50500,765,1970,43100,2960,2750,455,379,636
KDNKAATGETPSQPG,5980,2310,39900,319,261,11600,360,893,240,140,193
SGKEKKPAAGETPSQ,10200,801,8320,4110,11000,7400,261,264,99.8,91.3,300
GTDKKAATGEAPSQS,20600,20800,28600,3220,1210,22400,393,188,129,224,202
PSGKDNKAATGGAPS,4200,2040,3650,10500,8920,4040,352,303,184,124,163
TPPSGKENKPATGET,32500,35600,17400,343,6450,15300,2020,1870,406,2530,2440
SSTPPSGTEKKAAAG,42000,14900,35800,861,15800,5360,1180,441,174,151,253
GTEKKTAAGGAPSQS,707,1270,277,7040,1540,1820,201,567,260,359,129
GKEKKAATGEAPSQP,19100,17000,31900,7990,9830,20500,283,110,102,92.3,117
GKEKKPATGEAPSPS,42000,13000,36400,3050,5850,27500,735,275,149,102,253
SGTENKAATGGAPSQ,38100,14600,19200,854,984,5850,519,400,235,201,118
GKENKTATGEAPSQS,21100,13200,25600,13600,11800,27600,561,156,199,259,163
NKPAAGGAPSQPGAS,267,667,20000,1340,306,612,747,1210,345,235,1390
SGTDKKTATGEAPSQ,11700,25000,20100,1250,459,19600,200,115,548,224,110
GKDKKAAAGGAPSPS,222,178,181,2240,835,413,125,77.4,116,85.1,98.2
GTDKKPAAGEAPSQS,715,7280,20900,7070,625,16100,94.4,253,164,657,120
ISTPPSGKDKKAAAG,7370,303,682,377,29900,636,160,262,112,105,121
GTDKKTATGGTPSPP,508,724,423,4820,532,1510,278,180,187,178,124

Sequence,antibody binding signal [1],antibody binding signal [2],antibody binding signal [3],antibody binding signal [4],antibody binding signal [5],antibody binding signal [6],antibody binding signal [7],antibody binding signal [8],antibody binding signal [9],antibody binding signal [10],antibody binding signal [11]
GKENKPATGETPSPS,38400,15400,35400,8100,9650,32300,759,627,241,2060,2150
GKEKKTAAGGTPSQS,785,278,206,4160,758,1820,171,93.5,299,237,124
STPPSGKDKKAAAGG,21700,1350,2080,874,42900,1680,204,465,115,97.7,109
GTDNKAAAGETPSQP,563,3630,38800,271,660,1390,112,674,1520,126,78.7
TPPSGKENKPATGGT,17600,8070,11400,379,5150,12900,3410,2340,867,310,547
SGTEKKAATGGAPSP,3180,255,2360,1560,2560,2500,513,1640,154,148,193
PPSGKENKTAAGETP,6410,9370,4090,1340,1770,3690,2440,1780,306,374,274
KEKKPAAGGAPSPPG,175,215,269,1410,178,465,113,86.1,124,65.3,326
SGTDNKTAAGGTPSQ,1880,310,44600,6570,441,1390,223,646,2420,2080,279
EKKAATGEAPSPSGA,20400,20300,25300,286,394,23700,749,1240,160,264,1360
SSTPPSGKENKPATG,18300,8650,24500,1020,8770,13800,3710,2360,198,257,629
SSTPPSGKENKAATG,14600,3430,9300,1110,3470,2700,2960,1270,131,143,507
GTDNKAAAGGAPSPS,293,255,28700,3440,344,502,237,723,1610,170,235
EKKAATGGAPSQSGA,1050,258,754,1170,1580,941,386,1220,140,219,552
PPSGTDKKAAAGETP,10200,10700,25900,3430,31400,2320,399,530,268,2700,202
SGTDNKTATGEAPSQ,13700,29300,41000,172,211,23500,179,532,1140,113,210
ENKPAAGGAPSQSGA,352,2800,4910,1320,575,942,248,330,304,145,267
TSSTPPSGTEKKAAA,37500,4710,34900,1060,14300,4640,2220,357,174,104,643
ISTPPSGKENKTATG,14800,5520,11500,975,3110,3660,2520,1190,181,365,424
PSGTEKKAATGETPS,6080,4010,10500,1350,1750,12600,657,362,322,233,317
GKDNKAAAGGAPSPS,3010,977,1420,7340,6110,3440,196,286,97,93.8,103
KDNKPAAGEAPSQPG,7640,10900,37100,313,196,16000,332,434,146,319,77.3
PSGKEKKAAAGGTPS,5440,976,6790,9480,11300,8200,259,104,349,80.4,128
KEKKTATGGTPSPSG,314,252,223,1060,211,1130,151,73.7,128,121,94.5
